Measured values: the supplement of paper PMC10369915
The list shows a part of the results. No stated cut-off is given here; in the data, active = 3.2 or more and inactive = the rest. Only a few entries rise above the background.

Columns and labels:
Assay in all cases: enrichment score (SH2-bound / input frequency) (ratio); bacterial display of known human phosphotyrosine sites (pTyr-Var adds point mutants) read by sequencing; higher = stronger binding; tyrosines were phosphorylated by kinases first
Conditions in all cases: peptide library: pTyr-Var
[1] = biological target: SHP2 C-SH2 domain E139D
[2] = biological target: SHP2 C-SH2 domain wild-type
[3] = biological target: SHP2 N-SH2 domain L43F
[4] = biological target: SHP2 N-SH2 domain T42A
[5] = biological target: SHP2 N-SH2 domain T52S
[6] = biological target: SHP2 N-SH2 domain wild-type

Measured: enrichment score
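Further: displayed peptides selected on beads carrying the immobilized SH2 domain, with library peptides lacking any tyrosine serving as negative controls.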

B1: GAN_Y424 (peptide)
chain: MKKKIYAMGGG
inactive: [1] 0.917 | [2] 0.632 | [3] 0.626 | [4] 0.514 | [5] 1.07 | [6] 0.822

B2: GAN_Y471 (peptide)
chain: VAMELYVFGGV
inactive: [1] 0.863 | [2] 1.48 | [3] 0.698 | [4] 0.814 | [5] 0.835 | [6] 1.29

B3: GART_Y417 (peptide)
chain: FEGAIYRKDVG
inactive: [1] 1.01 | [2] 1.13 | [3] 0.722 | [4] 0.78 | [5] 0.723 | [6] 0.986

B4: GAMT_Y223 (peptide)
chain: ADCRYYAFPQM
inactive: [1] 1.45 | [2] 1.37 | [3] 1.51 | [4] 1.1 | [5] 0.862 | [6] 1.67

B5: GARS1_Y414_R412C_YF (peptide)
chain: FIGCIYLFLTK
inactive: [1] 3.17 | [2] 2.23 | [3] 2.3 | [4] 1.75 | [5] 2.92 | [6] 2.41

B6: GARS1_Y408 (peptide)
chain: NTVLGYFIGRI
inactive: [1] 1.25 | [2] 1.25 | [3] 1.11 | [4] 1.1 | [5] 1 | [6] 1.17

B7: GALE_Y241_R239W (peptide)
chain: TGVWDYIHVVD
inactive: [1] 0.922 | [2] 0.994 | [3] 0.966 | [4] 0.882 | [5] 0.836 | [6] 1.34

B8: GAB1_Y307 (peptide)
chain: HVSISYDIPPT
inactive: [1] 1.04 | [2] 0.639 | [3] 1.16 | [4] 0.743 | [5] 1.02 | [6] 0.868

B9: GALE_Y104 (peptide)
chain: QKPLDYYRVNL
inactive: [1] 0.945 | [2] 0.77 | [3] 0.787 | [4] 0.768 | [5] 0.683 | [6] 1.13

B10: GALK1_Y236_R239Q (peptide)
chain: LASSEYPVQRR
inactive: [1] 0.517 | [2] 0.283 | [3] 0.641 | [4] 0.617 | [5] 0.694 | [6] 0.7

B11: GALNTL5_Y404_G401S (peptide)
chain: KPSLKYVTYGN
inactive: [1] 1.2 | [2] 0.954 | [3] 1.56 | [4] 1.49 | [5] 1.45 | [6] 1.11

B12: GALK1_Y236 (peptide)
chain: LASSEYPVRRR
inactive: [1] 0.2 | [2] 0.176 | [3] 0.21 | [4] 0.18 | [5] 0.251 | [6] 0.232

B13: GAMT_Y223_A224T (peptide)
chain: ADCRYYTFPQM
inactive: [1] 0.932 | [2] 1.34 | [3] 1.1 | [4] 1.08 | [5] 1.29 | [6] 0.999

B14: GAB1_Y373 (peptide)
chain: DTDSSYCIPTA
inactive: [1] 0.52 | [2] 0.639 | [3] 0.636 | [4] 0.699 | [5] 0.694 | [6] 0.799

B15: GATA6_Y188_S184N (peptide)
chain: ANSPVYVPTTR
inactive: [1] 0.573 | [2] 0.678 | [3] 0.947 | [4] 0.57 | [5] 0.746 | [6] 0.712

B16: GAGE12J_Y10_YF (peptide)
chain: GRSTFYWPRPR
inactive: [1] 0.233 | [2] 0.222 | [3] 0.208 | [4] 0.279 | [5] 0.314 | [6] 0.239

B17: GAMT_Y223_YF (peptide)
chain: ADCRFYAFPQM
inactive: [1] 0.856 | [2] 1.21 | [3] 1.04 | [4] 0.812 | [5] 0.791 | [6] 1.43

B18: GAPDH_Y255_K251N (peptide)
chain: ENPAKYDDIKK
inactive: [1] 1.81 | [2] 0.596 | [3] 0.553 | [4] 0.515 | [5] 0.582 | [6] 0.57

B19: GAMT_Y222 (peptide)
chain: PADCRYYAFPQ
inactive: [1] 0.634 | [2] 0.747 | [3] 0.797 | [4] 0.743 | [5] 0.806 | [6] 0.76

B20: GAB2_Y324 (peptide)
chain: TPLSAYQIPRT
inactive: [1] 0.846 | [2] 0.776 | [3] 0.744 | [4] 0.595 | [5] 0.554 | [6] 0.673

B21: GABRA1_Y375 (peptide)
chain: PTATSYTPNLA
inactive: [1] 0.742 | [2] 0.795 | [3] 0.79 | [4] 0.77 | [5] 0.776 | [6] 0.766

B22: GAGE12J_Y10 (peptide)
chain: GRSTYYWPRPR
inactive: [1] 0.275 | [2] 0.228 | [3] 0.289 | [4] 0.268 | [5] 0.236 | [6] 0.271

B23: GATA1_Y223 (peptide)
chain: DRTGHYLCNAC
inactive: [1] 0.858 | [2] 0.968 | [3] 0.772 | [4] 0.826 | [5] 0.952 | [6] 1.32

B24: GAGE12J_Y9_Y9C_YF (peptide)
chain: RGRSTCFWPRP
inactive: [1] 0.27 | [2] 0.204 | [3] 0.256 | [4] 0.171 | [5] 0.295 | [6] 0.247

B25: GARS1_Y408_R412C (peptide)
chain: NTVLGYFIGCI
inactive: [1] 0.786 | [2] 1.03 | [3] 0.975 | [4] 0.777 | [5] 0.656 | [6] 1.32

B26: GABRB2_Y308_K303R (peptide)
chain: RAIDMYLMGCF
inactive: [1] 0.874 | [2] 1.1 | [3] 0.832 | [4] 1.19 | [5] 0.981 | [6] 1.04

B27: GANAB_Y396_R400L (peptide)
chain: LFSLGYHQSLW
inactive: [1] 1.41 | [2] 1.45 | [3] 1.21 | [4] 1.5 | [5] 1.11 | [6] 0.881

B28: GAGE12J_Y9_YF (peptide)
chain: RGRSTYFWPRP
inactive: [1] 0.227 | [2] 0.256 | [3] 0.225 | [4] 0.272 | [5] 0.156 | [6] 0.239

B29: GANAB_Y379 (peptide)
chain: DVFRQYASLTG
inactive: [1] 0.672 | [2] 1.97 | [3] 0.619 | [4] 1.02 | [5] 0.575 | [6] 0.783

B30: GARS1_Y414_R412C (peptide)
chain: FIGCIYLYLTK
inactive: [3] 2.88 | [4] 2.34 | [5] 2.07 | [6] 2.97
active: [1] 4 | [2] 3.46

B31: GALE_Y104_YF (peptide)
chain: QKPLDYFRVNL
inactive: [1] 0.878 | [2] 0.65 | [3] 0.905 | [4] 0.677 | [5] 0.825 | [6] 0.685

B32: GAA_Y438_R437H (peptide)
chain: QGGRHYMMIVD
inactive: [1] 1.01 | [2] 1.22 | [3] 0.763 | [4] 1.19 | [5] 1.12 | [6] 1.37

B33: GATAD2B_Y317_I316V (peptide)
chain: TSSAVYMNLAS
inactive: [1] 2.62 | [2] 2.22 | [3] 2.27 | [4] 2.63 | [5] 2.36 | [6] 2.24

B34: GAMT_Y27_Y27H (peptide)
chain: AAPAAHDAADT
inactive: [1] 0.375 | [2] 0.412 | [3] 0.529 | [4] 0.36 | [5] 0.415 | [6] 0.451

B35: GARS1_Y467 (peptide)
chain: ADRSCYDLSCH
inactive: [1] 1.03 | [2] 0.991 | [3] 0.912 | [4] 0.769 | [5] 1.05 | [6] 0.924

B36: GAGE12J_Y9_R13S_YF (peptide)
chain: RGRSTYFWPSP
inactive: [1] 0.284 | [2] 0.138 | [3] 0.326 | [4] 0.294 | [5] 0.197 | [6] 0.38

B37: GAA_Y822 (peptide)
chain: HLRAGYIIPLQ
inactive: [1] 1.96 | [2] 2.92 | [3] 1.31 | [4] 2.01 | [5] 3.07 | [6] 1.96
